Source: patent US12545673B2, “Imidazopyridine derivative and pharmaceutical composition comprising same as active ingredient” (TSD LIFE SCIENCES CO., LTD., priority 2019, dated 2026)

Tested on: human gastric cancer cell line HS746T
Assay: cells

| SMILES | pIC50 (HS746T, 0.1-30 μM, CCK-8) | pIC50 |
| --- | --- | --- |
| CCS(=O)(=O)N1CC[C@H](Nc2c(Br)cnc3nc(-c4cc(C)n(-c5ccc(NC(=O)CN6CCN(C)CC6)cc5C)c4C)[nH]c23)C1 [Example 75, N-(4-(3-(6-bromo-7-(((S)-1-(ethylsulfonyl)pyrrolidine-3-yl)amino)-1H-imidazo[4,5-b]pyridine-2-yl)-2,5-dimethyl-1H-pyrrol-1-yl)-3-methylphenyl)-2-(4-methylpiperazine-1-yl) acetamide] | 5.21 | – |
| CCS(=O)(=O)N1CC[C@H](Nc2c(Cl)cnc3nc(-c4cc(C)n(-c5cccc(C(=O)N6CCOCC6)c5)c4C)[nH]c23)C1 [Example 54, (S)-(3-(3-(6-chloro-7-((1-(ethylsulfonyl)pyrrolidine-3-yl)amino)-1H-imidazo[4,5-b]pyridine-2-yl)-2,5-dimethyl-1H-pyrrol-1-yl)phenyl) (morpholino) methanone] | – | 5.17 |
| CCS(=O)(=O)N1CC[C@H](Nc2c(Br)cnc3nc(-c4cc(C)n(-c5cc(NC(=O)CN6CCN(C)CC6)ccc5C)c4C)[nH]c23)C1 [Example 76, N-(3-(3-(6-bromo-7-(((S)-1-(ethylsulfonyl)pyrrolidine-3-yl)amino)-1H-imidazo[4,5-b]pyridine-2-yl)-2,5-dimethyl-1H-pyrrol-1-yl)-4-methylphenyl)-2-(4-methylpiperazine-1-yl) acetamide] | – | 5.15 |
| CCS(=O)(=O)N1CC[C@H](Nc2c(Br)cnc3nc(-c4cc(C)n(-c5cc(NC(=O)CN6CCOCC6)ccc5C)c4C)[nH]c23)C1 [Example 78, N-(3-(3-(6-bromo-7-(((S)-1-(ethylsulfonyl)pyrrolidine-3-yl)amino)-1H-imidazo[4,5-b]pyridine-2-yl)-2,5-dimethyl-1H-pyrrol-1-yl)-4-methylphenyl)-2-morpholinoacetamide] | 5.13 | – |
| CCS(=O)(=O)N1CC[C@H](Nc2c(Br)cnc3nc(-c4cc(C)n(-c5cccc(NC(=O)CN6CCOCC6)c5)c4C)[nH]c23)C1 [Example 66, (S)—N-(3-(3-(6-bromo-7-((1-(ethylsulfonyl)pyrrolidine-3-yl)amino)-1H-imidazo[4,5-b]pyridine-2-yl)-2,5-dimethyl-1H-pyrrol-1-yl)phenyl)-2-morpholinoacetamide] | 5.28 | – |
| CCS(=O)(=O)N1CC[C@H](Nc2c(Br)cnc3nc(-c4cc(C)n(-c5cccc(NC(=O)CN6CCN(C)CC6)c5)c4C)[nH]c23)C1 [Example 65] | 5.57 | – |
| CCS(=O)(=O)N1CC[C@H](Nc2c(Br)cnc3[nH]c(-c4cc(C)n(-c5cccc(C(=O)NCN(C)C)c5)c4C)nc23)C1 [Example 60, (S)-3-(3-(6-bromo-7-((1-(ethylsulfonyl)pyrrolidine-3-yl)amino)-3H-imidazo[4,5-b]pyridine-2-yl)-2,5-dimethyl-1H-pyrrol-1-yl)-N-((dimethylamino)methyl)benzamide] | 5.25 | – |
| CCS(=O)(=O)N1CC[C@H](Nc2c(Br)cnc3[nH]c(-c4cc(C)n(-c5ccc(NS(C)(=O)=O)cc5C)c4C)nc23)C1 [Example 8, N-(4-(3-(6-bromo-7-(((S)-1-(ethylsulfonyl)pyrrolidine-3-yl)amino)-3H-imidazo[4,5-b]pyridine-2-yl)-2,5-dimethyl-1H-pyrrol-1-yl)-3-methylphenyl) methanesulfonamide] | 5.47 | – |
| CCS(=O)(=O)N1CC[C@H](Nc2c(Br)cnc3nc(-c4cc(C)n(-c5ccc(NC(=O)CN6CCOCC6)cc5C)c4C)[nH]c23)C1 [Example 77, N—(4-(3-(6-bromo-7-(((S)-1-(ethylsulfony)pyrolidine-3-yl)amino)-1H-imidazo[4,5-b]pyridine-2-yl)-2,5-dimethyl-1H-pyrrol-1-yl)-3-methylphenyl)-2-morpholinoacetamide] | – | < 5.00 |
| CCS(=O)(=O)N1CC[C@H](Nc2c(Br)cnc3[nH]c(-c4cc(C)n(-c5cc(NS(C)(=O)=O)ccc5C)c4C)nc23)C1 [Example 7, N-(3-(3-(6-bromo-7-(((S)-1-(ethylsulfonyl)pyrrolidine-3-yl)amino)-3H-imidazo[4,5-b]pyridine-2-yl)-2,5-dimethyl-1H-pyrrol-1-yl)-4-methylphenyl) methanesulfonamide] | 5.13 | – |
| CCS(=O)(=O)N1CC[C@H](Nc2c(Br)cnc3nc(-c4cc(C)n(-c5cccc(NC(=O)CCN(C)C)c5C)c4C)[nH]c23)C1 [Example 79] | 5.51 | – |
| CCS(=O)(=O)N1CC[C@H](Nc2c(Br)cnc3[nH]c(-c4cc(C)n(-c5cccc(C(=O)N(C)CCN(C)C)c5)c4C)nc23)C1 [Example 61, (S)-3-(3-(6-bromo-7-((1-(ethylsulfonyl)pyrrolidine-3-yl)amino)-3H-imidazo[4,5-b]pyridine-2-yl)-2,5-dimethyl-1H-pyrrol-1-yl)-N-(2-(dimethylamino)ethyl)-N-methylbenzamide] | 5.27 | – |
| CCS(=O)(=O)N1CC[C@H](Nc2c(Br)cnc3nc(-c4cc(C)n(-c5cccc(C(=O)N6CCOCC6)c5C)c4C)[nH]c23)C1 [Example 83, (3-(3-(6-bromo-7-(((S)-1-(ethylsulfonyl)pyrrolidine-3-yl)amino)-1H-imidazo[4,5-b]pyridine-2-yl)-2,5-dimethyl-1H-pyrrol-1-yl)-2-methylphenyl) (morpholino) methanone] | 5.07 | – |
| CCS(=O)(=O)N1CC[C@H](Nc2c(Br)cnc3nc(-c4cc(C)n(-c5cccc(NC(=O)CN(C)C)c5)c4C)[nH]c23)C1 [Example 64, (S)—N-(3-(3-(6-bromo-7-((1-(ethylsulfonyl)pyrrolidine-3-yl)amino)-1H-imidazo[4,5-b]pyridine-2-yl)-2,5-dimethyl-1H-pyrrol-1-yl)phenyl)-2-(dimethylamino) acetamide] | 5.39 | – |
| CCS(=O)(=O)N1CC[C@H](Nc2c(Cl)cnc3nc(-c4cc(C)n(-c5ccc(OCCN6CCOCC6)cc5)c4C)[nH]c23)C1 [Example 52, (S)-6-chloro-2-(2,5-dimethyl-1-(4-(2-morpholinoethoxy)phenyl)-1H-pyrrol-3-yl)-N-(1-(ethylsulfonyl)pyrrolidine-3-yl)-1H-imidazo[4,5-b]pyridine-7-amine] | – | < 5.00 |
| CCS(=O)(=O)N1CC[C@H](Nc2c(Br)cnc3nc(-c4cc(C)n(-c5ccc(C(=O)N6CCN(C)CC6)cc5)c4C)[nH]c23)C1 [Example 67, (S)-(4-(3-(6-bromo-7-((1-(ethylsulfonyl)pyrrolidine-3-yl)amino)-1H-imidazo[4,5-b]pyridine-2-yl)-2,5-dimethyl-1H-pyrrol-1-yl)phenyl) (4-methylpiperazine-1-yl) methanone] | < 5.00 | – |
| CCN(CC)CCNC(=O)c1ccc(-n2c(C)cc(-c3nc4ncc(Br)c(N[C@H]5CCN(S(=O)(=O)CC)C5)c4[nH]3)c2C)cc1 [Example 57, (S)-4-(3-(6-bromo-7-((1-(ethylsulfonyl)pyrrolidine-3-yl)amino)-1H-imidazo[4,5-b]pyridine-2-yl)-2,5-dimethyl-1H-pyrrol-1-yl)-N-(2-(diethylamino)ethyl)benzamide] | 5.26 | – |
| CCS(=O)(=O)N1CC[C@H](Nc2c(Br)cnc3nc(-c4cc(C)n(-c5ccc(NC(=O)CN(C)C)cc5C)c4C)[nH]c23)C1 [Example 73, N-(4-(3-(6-bromo-7-(((S)-1-(ethylsulfonyl)pyrrolidine-3-yl)amino)-1H-imidazo[4,5-b]pyridine-2-yl)-2,5-dimethyl-1H-pyrrol-1-yl)-3-methylphenyl)-2-(dimethylamino) acetamide] | 5.27 | – |
| CCS(=O)(=O)N1CC[C@H](Nc2c(Br)cnc3nc(-c4cc(C)n(-c5cccc(NC(=O)CN6CCN(C)CC6)c5C)c4C)[nH]c23)C1 [Example 87, N-(3-(3-(6-bromo-7-(((S)-1-(ethylsulfonyl)pyrrolidine-3-yl)amino)-1H-imidazo[4,5-b]pyridine-2-yl)-2,5-dimethyl-1H-pyrrol-1-yl)-2-methylphenyl)-2-(4-methylpiperazine-1-yl) acetamide] | 5.24 | – |
| CCS(=O)(=O)N1CC[C@H](Nc2c(Br)cnc3[nH]c(-c4cc(C)n(-c5ccc(C(=O)NCCN6CCN(C)CC6)cc5)c4C)nc23)C1 [Example 72, (S)-4-(3-(6-bromo-7-((1-(ethylsulfonyl)pyrrolidine-3-yl)amino)-3H-imidazo[4,5-b]pyridine-2-yl)-2,5-dimethyl-1H-pyrrol-1-yl)-N-(2-(4-methylpiperazine-1-yl)ethyl)benzamide] | 5.03 | – |
| CCS(=O)(=O)N1CC[C@H](Nc2c(Br)cnc3nc(-c4cc(C)n(-c5cccc(C(=O)N6CCN(C)CC6)c5C)c4C)[nH]c23)C1 [Example 81, (3-(3-(6-bromo-7-(((S)-1-(ethylsulfonyl)pyrrolidine-3-yl)amino)-1H-imidazo[4,5-b]pyridine-2-yl)-2,5-dimethyl-1H-pyrrol-1-yl)-2-methylphenyl) (4-methylpiperazine-1-yl) methanone] | < 5.00 | – |
| CCN(CC)CCNC(=O)c1cccc(-n2c(C)cc(-c3nc4ncc(Br)c(N[C@H]5CCN(S(=O)(=O)CC)C5)c4[nH]3)c2C)c1 [Example 56, (S)-3-(3-(6-bromo-7-((1-(ethylsulfonyl)pyrrolidine-3-yl)amino)-1H-imidazo[4,5-b]pyridine-2-yl)-2,5-dimethyl-1H-pyrrol-1-yl)-N-(2-(diethylamino)ethyl)benzamide] | – | 5.25 |
| CCS(=O)(=O)N1CC[C@H](Nc2c(Cl)cnc3[nH]c(-c4cc(C)n(-c5cc(NS(C)(=O)=O)ccc5C)c4C)nc23)C1 [Example 51, N-(3-(3-(6-chloro-7-(((S)-1-(ethylsulfonyl)pyrrolidine-3-yl)amino)-3H-imidazo[4,5-b]pyridine-2-yl)-2,5-dimethyl-1H-pyrrol-1-yl)-4-methylphenyl) methanesulfonamide] | – | < 5.00 |
| CCS(=O)(=O)N1CC[C@H](Nc2c(Br)cnc3nc(-c4cc(C)n(-c5cc(NC(=O)CN(C)C)ccc5C)c4C)[nH]c23)C1 [Example 74, N-(3-(3-(6-bromo-7-(((S)-1-(ethylsulfonyl)pyrrolidine-3-yl)amino)-1H-imidazo[4,5-b]pyridine-2-yl)-2,5-dimethyl-1H-pyrrol-1-yl)-4-methylphenyl)-2-(dimethylamino) acetamide] | – | 5.21 |
| CCS(=O)(=O)N1CC[C@H](Nc2c(Br)cnc3nc(-c4cc(C)n(-c5cc(NC(=O)CCN(C)C)ccc5C)c4C)[nH]c23)C1 [Example 80] | – | 5.19 |
| CCS(=O)(=O)N1CC[C@H](Nc2c(Br)cnc3[nH]c(-c4cc(C)n(-c5cccc(NS(C)(=O)=O)c5C)c4C)nc23)C1 [Example 9, N-(3-(3-(6-bromo-7-(((S)-1-(ethylsulfonyl)pyrrolidine-3-yl)amino)-3H-imidazo[4,5-b]pyridine-2-yl)-2,5-dimethyl-1H-pyrrol-1-yl)-2-methylphenyl) methanesulfonamide] | 5.43 | – |

pIC50: −log10 of the molar value. Read-outs that look alike come from different tables or passages of the source.
